The record followed here is the supplement of paper PMC11417369.

± gives the standard deviation of the averaged measurements. The list shows a part of the results.

The assay relates to PfAP2-EXP AP2 domain (GST-tagged). In words: gcPBM binding intensity (ln(normalized median fluorescence intensity)); higher = stronger DNA binding. An outline of the steps:
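DNA-binding domains from P. falciparum, fused to GST and produced in E. coli, were put on an Agilent 4 × 180k double-stranded probe array for 1 h in 1× PBS holding 1% milk, 0.2 mg/ml BSA, 0.5% salmon testes DNA and 0.03% Triton X-100. Probes were primer-extended, 36 bp long and drawn from intergenic genomic regions, with negative controls included. After Alexa488 anti-GST antibody detection and a 488 nm scan, binding intensity was set as the highest Masliner-normalised natural-log median intensity across replicate spots of either probe orientation.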
Consider “TCTTTGGTATTTACATGTACATATTCTTAAAAACAT [XGTACX_site3124]”, for which the “gcPBM binding intensity (ln)” value is 9.04 ± 0.26.
For GAAAATAAAATATTAGTGCATTATTTGATCAATAAT, the “gcPBM binding intensity (ln)” value turned out to be 8.64 ± 0.13.
As for “AATTATAAATCTTGCACACAAAAAAAATAATAAAAA [CACACA_site2434]”, the figure is 8.36 ± 0.43; as for “TAATAAATAATGGTTACACACAAAATATAAAACTTA [CACACA_site3544]”, 8.36 ± 0.39.
Consider “TAAACACATATATAGACATGCAACTAGTTTTTATAA [TGCATGCA_site474]”, for which the “gcPBM binding intensity (ln)” value worked out at 8.68 ± 0.57.
As for “AAATCTTTGTGTGGATGTACTTTTATAAAAAAGAAT [XGTACX_site3830]”, the figure is 8.53 ± 0.36.
With “TCTGTTCTTTTTTAATGTACAAGAAATATAAAATTC [XGTACX_site3600]”, the “gcPBM binding intensity (ln)” value was determined as 8.38 ± 0.38.
As for “AATTTTTAGTATATAACATAAAATAAAATAAAATAA [GTGCAC_negctrl_site696]”, the figure is 8.47 ± 0.38.
For the sequence “TTATTTTTTTTTTTTTGTACACAATTTGACACATTA [XGTACX_site7983]”, the “gcPBM binding intensity (ln)” value stood at 8.59 ± 0.57.
In the case of “TTTATTTAATTATGTTGTACATGTAGGATTTATTTT [XGTACX_site7078]”, the “gcPBM binding intensity (ln)” value amounted to 8.68 ± 0.42.
On to “TAAAAAGTTATATTCACACACATACACATATAAATA [CACACA_site6398]”, for which the “gcPBM binding intensity (ln)” value stood at 8.45 ± 0.56.
As for “AAAAAGGAAATAATAACACACATTAATAATTATAAA [CACACA_site3401]”, the figure is 8.58 ± 0.44; as for “GTTAAAAAAAGGAGAGATCTCACACAAATATATATA [GTGCAC_negctrl_site117]”, 8.74 ± 0.55; as for “GGGTGCCAAATTAGCACACACATATATACCTGAATT [CACACA_site5551]”, 8.7 ± 0.28.
As for “ATGATAAATATAAGTTGTACATATATCTATGTGCAT [XGTACX_site6010]”, the figure is 8.34 ± 0.27; as for “CATAAATACTATATATGTACGTAATTTTTAAAACAT [XGTACX_site7710]”, 8.72 ± 0.35; as for “CATTTAATAATAACAAGTACACAAAGATGTATAACA [XGTACX_site8315]”, 8.38 ± 0.2.
Regarding “AATATATATGAAAAAAGTACTCAAGGAATAAAAAAA [XGTACX_site7720]”, the “gcPBM binding intensity (ln)” value turned out to be 8.92 ± 0.38.
As for TATATATATATATATGTGCGCATTACTTTAAGAATA, the figure is 10.1 ± 0.35.
As for “TTACAAATAATTTGTTGTACGCTTTTTTTCTTTTTT [XGTACX_site7199]”, the figure is 8.71 ± 0.4.
As for “TATAATATTCTATATGCATGTACACCATTCTTTATT [TGCATGCA_site688]”, the figure is 9.19 ± 0.4; as for “ACAATATCTAGATACACACACATATCTCTCAATCTA [CACACA_site656]”, 8.66 ± 0.36; as for “TTTTTTTTTATTTGTTGTACGAGGTTTTAAAATTTT [XGTACX_site106]”, 8.79 ± 0.49.
With “TAATAAAACATATATACACACATTATATATACATAT [CACACA_site8495]”, the “gcPBM binding intensity (ln)” value came out at 8.35 ± 0.35.
For the sequence “AAAAAGGTTATTGGTACACACATATGTATATAAATA [CACACA_site6402]”, the “gcPBM binding intensity (ln)” value was determined as 8.71 ± 0.46.
For “TATTGTTATCTTTTATGTACTTAAAAAAATAAATTT [XGTACX_site4233]”, the “gcPBM binding intensity (ln)” value was determined as 8.54 ± 0.2.
Consider “GTAGGCATTAAAAAATGTACAAAATATTATGAATTG [XGTACX_site1615]”, for which the “gcPBM binding intensity (ln)” value is 8.49 ± 0.45.
For the sequence “GTATGAAATTATAATAGTACATATAAATAAAAAAAA [XGTACX_site8955]”, the “gcPBM binding intensity (ln)” value was found to be 8.66 ± 0.39.
As for “TGTATTATATGTAAATGTACATTTAATATTTTATAT [XGTACX_site4461]”, the figure is 8.54 ± 0.33; as for “TATATATAATATATATATATGGAAATTCTTTTAAAT [XGTACX_negctrl_site50]”, 8.24 ± 0.3; as for “ATATAAGGATAACCTAGTACATATTATATGAAACAA [XGTACX_site8459]”, 8.62 ± 0.3.
Take “AAGGGGAAAAAAAAAAGTACACAAACATAGGATAAT [XGTACX_site377]”: the “gcPBM binding intensity (ln)” value was 9.29 ± 0.46.
Regarding “CAATTAAAATGCAACGGTACACATAAAAAAAATAAA [XGTACX_site6216]”, the “gcPBM binding intensity (ln)” value was 8.95 ± 0.3.
Take “AAAATAAATAAATAAATATATATATATATATATATA [TGCATGCA_negctrl_site558]”: the “gcPBM binding intensity (ln)” value is 9.99 ± 0.4.
As for “TACGGTAAATAGTGTTGTACGATACAATTGTTTTCT [XGTACX_site8118]”, the figure is 8.43 ± 0.39.
In the case of “CCACAAGTATATAGTAGTACAATTTTTTTCTCTTTA [XGTACX_site4403]”, the “gcPBM binding intensity (ln)” value was 8.45 ± 0.41.
As to “TTTATGTGTTATAAATGTACATAATATAATTCGTAT [XGTACX_site3845]”, the “gcPBM binding intensity (ln)” value was 8.56 ± 0.35.
As for “TTTTTTTTATTTTGTTGTACGCTTATTTGTATATAT [XGTACX_site7325]”, the figure is 8.95 ± 0.45; as for “TTATCTATAAATACGAGTACGCAAAATCATATAATA [XGTACX_site2447]”, 8.9 ± 0.47; as for “TTTTTATAAAATTTTATGAGCTCGGAAAAAATAAAC [GTGCAC_negctrl_site637]”, 8.97 ± 0.37.
As for “TAATTATTTGCCCTTACTCTGAACATTCGGAATTTA [CACACA_negctrl_site1278]”, the figure is 8.56 ± 0.4; as for “ATTTACGCGCTTATTACACACACATACAAATAAGGA [CACACA_site9157]”, 8.81 ± 0.43.
As for “TTTTAATATTAAGATGTCTTTTACGTTTATTTTGTA [CACACA_negctrl_site765]”, the figure is 8.57 ± 0.55; as for “TTCTTTTTAAATTACACACACATATAAATATGTATA [CACACA_site7618]”, 8.66 ± 0.21.
